# Results: ChEMBL document CHEMBL4888484, “Replenishing the malaria drug discovery pipeline: Screening and hit evaluation of the MMV Hit Generation Library 1 (HGL1) against asexual blood stage Plasmodium falciparum ,using a nano luciferase reporter read-out” (2022)
# Hit rate of the full screen: of about 150,000 compounds, about 540 (0.36%) showed an effect of 50% or more. The list shows a part of the results.
# Tested on: Plasmodium falciparum
# Experiment: Primary screen in NF54 nanoGlo assay, in single point, at 2uM, 72h; a lower Z score goes with more inhibition
# Type: functional, Erythrocyte
# Conditions: timepoint 72 hour
Compound,% Inhibition [%],Z score
CCCN(C(=O)Nc1cn(CC(C)C)c(=O)c2ccccc12)c1ccccc1C,1,-0.21
COc1ccc(C(=O)N[C@@H]2CCC[C@@H]2C(=O)NCc2ccc(C)o2)cc1,-1,0.15
COC(=O)CNC(=O)N1CCCCC[C@H]1c1ccccc1Cl,11,-1.5
C[C@H](NC(=O)Cc1ccncc1)C(=O)N1CCCC1,-6,0.83
Cc1ccc(C)c(Cn2cccc2CNC(=O)NC2CCCCC2)c1,8,-1.18
O=C1CN(S(=O)(=O)c2cccc3cccnc23)CCN1c1ccccn1,17,-2.14
CC(C)(C)[C@H](NS(=O)(=O)CC1CCOCC1)c1ccccc1,1,-0.08
Cc1noc(C)c1NC(=O)[C@H]1CC(=O)N(C2CCC(C)CC2)C1 (stereo not given in full),-7,1.38
CC(C)[C@H](CNC(=O)c1ccc2c(c1)CCCC2)N1CCN(C)CC1,-3,0.53
Cc1cccc2nc(C3CCN(c4ncnn4C)CC3)oc12,-16,1.89
Cn1cc(S(=O)(=O)N2CCCCCC2)cc1C(=O)Nc1ccccc1F,-1,0.13
CCCNC(=O)C1CCN(c2nc3ncn(CC(=O)Nc4cccc(C)c4)c(=O)c3s2)CC1,-10,1.79
N#CC1CCN(C(=O)c2cnc(OC3CCOCC3)c(Cl)c2)CC1,-19,3.56
Cc1ccncc1C(=O)N1CCC(C(=O)O)(n2ccc(C(C)(C)C)n2)CC1,-5,0.95
O[C@@H](CNCc1c[nH]nc1-c1cccnc1)c1ccccc1F,11,-1.07
CC(=O)N1CCN(CCOc2ccccc2Cl)CCC12CCOCC2,5,-0.72
Cc1cc(F)ccc1-n1cc(C(=O)NC2(C#N)CCOCC2)nn1,-6,1.16
COCCN(Cc1ccc(C(O)(c2cccc(F)c2)c2cccc(F)c2)o1)Cc1ccccc1OC,-4,0.5
COc1ncccc1-c1n[nH]c2ncccc12,-10,1.93
CN(CC(=O)Nc1nnc(C(F)F)s1)S(=O)(=O)c1ccc(Br)cc1,-7,1.31
OC(COCc1ccco1)CN1CCCCC1Cn1cncn1 (stereo not given),-7,1.04
NC(=O)c1nnsc1NC(=O)C(F)F,-5,0.75
CCC1(CC)Oc2ccc(NC(=O)[C@H](C)NC(=O)c3ccoc3)cc2O1,8,-0.81
O=C(NC[C@H](O)c1cccnc1)c1coc(COc2ccc(F)cc2)n1,-10,1.58
CCc1nccn1CCC(=O)NCc1nonc1C,-6,0.93
O=C(Nc1ccc(N2CCCN(Cc3cccc(Cl)c3F)C2=O)cc1)c1ccccc1Cl,-12,2.17
COc1cc(-c2noc(-c3ccccc3)n2)ccc1OCC(=O)Nc1cc(C)cc(C)c1,-3,0.62
Nc1nccnc1C(=O)NC1CCCCCCC1,-10,1.99

Compound,% Inhibition [%],Z score
COCC(=O)N[C@H]1CO[C@H]2[C@@H]1OC[C@@H]2n1nnnc1Oc1ccc(-n2ccnc2)cc1,13,-1.56
COc1nc(C)cc(NC2C3CCOC3C2(C)C)n1 (stereo not given),1,-0.1
C[C@H]1CN(C)CCN1C(=O)c1cn2cccnc2n1,-1,0.06
CCn1nccc1-c1n[nH]c(=O)n1CC,-3,0.43
COc1ccc(C(=O)N2CCCN(c3nnc(C(F)(F)F)s3)CC2)nc1,-2,0.25
Cn1c(CN[C@H]2CCc3ccccc32)nc2ccccc21,-6,1.01
CC1(C)CCC(C(=O)N2CCC[C@@H]2C(N)=O)O1 (stereo not given in full),-8,0.84
CCc1nnc2n1CCN(CCCCC#N)C2,-8,1.02
CCC1CCCCC1OCC(=O)N1CCOCC1C1CCCCC1=O (stereo not given),-5,0.59
Cc1cc(-c2ccc(C(=O)N3CCN(Cc4nnc[nH]4)CC3)cc2)ccn1,3,-0.31
O=C(N[C@H]1CCC[C@@H]1O)C1COc2ccc(Br)cc21 (stereo not given in full),27,-3.05
O=c1ccc(NS(=O)(=O)c2ccccc2)c2n1C[C@H]1C[C@@H]2CN(S(=O)(=O)c2ccccc2)C1,-2,0.32
OCC1OC(Nc2ccc(Br)cc2)C(O)C1O (stereo not given),-2,0.32
COc1ccc(OC)c(C(=O)c2ccc(C(=O)N3CCCC3)cc2)c1,-20,3.11
COCCN(C(=O)CCc1cccc(F)c1)c1ccncc1,0,-0.02
COC(=O)c1cnccc1N1CC(C)(OC)C1,2,-0.18
CCc1ccc2c(c1)[C@H](CCNC(=O)c1ncccc1F)C(=O)N2,-4,0.72
COCCN1C(=O)CN(C2CCN(C(=O)Cc3ccc(Cl)cc3)CC2)C1=O,-5,0.52
Cc1ccc(CNC(=O)c2csnn2)n1C,40,-4.05
O=S(=O)(Cc1nnnn1-c1ccccc1)c1ccccc1,-10,1.35
O=C(Cc1noc(Cc2ccc(F)cc2)n1)Nc1ccc(N2CCOCC2)cc1,-6,0.78
COc1cc2ncc3c(-c4ccc(C)c(C)c4)n[nH]c3c2cc1OC,51,-4.04
C[C@H]1CN(C(=O)Nc2ncc(Cc3ccccc3)s2)CCCO1,-9,1.24
Cn1cccc1-c1nnc(C2(C)CCOCC2)o1,-12,1.17
CC(=O)Nc1c(Cl)n(C(C)=O)c2ccccc12,-9,1.25
COc1ccc(-c2nc3cccnc3n2[C@H]2CCN(C(=O)Nc3cc(F)ccc3F)C2)cc1,-11,1.61
CCS(=O)(=O)c1cc(F)ccc1NC(=O)N1CC[C@]2(CCOC2)C1,-8,1.16
